Experimental data as given in PubChem BioAssay AID1347043 (National Center for Advancing Translational Sciences (NCATS), 2019).
The campaign covered roughly 76,000 compounds. About 1,900 (2.5%) were called active. The inconclusive results got no clear call from the source; some entries with a clear call stand among them for comparison. The call rests on the fitted dose curve; in most records, active means well fitted inhibition curve with a large enough effect; inconclusive means small, poorly fitted or top-dose-only effect; inactive means flat fitted curve, though single readings scatter. A potency beside an inconclusive call is a rough fit, not a confirmed value.

Target: Luciferin 4-monooxygenase (Photinus pyralis) (UniProt P08659)
Assay: Firefly luciferase inhibition profiling of diverse chemical library using quantitative high-throughput screening; further: nearly all actives have a fitted effect of over 65% in size
Settings: purified P. pyralis luciferase, luminescence, biochemical; activity change, negative = inhibition: at 115 µM (top of the series) unless noted
How it was run: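 Luminescence read by CCD imager after adding enzyme (10nM final) to wells holding compound, titrated in qHTS. Substrates 10uM each D-luciferin and ATP; buffer 50mM Tris acetate pH 7.5, 10mM Mg acetate, Tween-20, BSA.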
On the % scale 0 is the no-effect control and ±100 the full control effect; potency means the concentration at half of the fitted maximal effect; tags describe the fitted curve by direction and shape.

Sequence of UniProt P08659 (P08659 whole entry, looked up): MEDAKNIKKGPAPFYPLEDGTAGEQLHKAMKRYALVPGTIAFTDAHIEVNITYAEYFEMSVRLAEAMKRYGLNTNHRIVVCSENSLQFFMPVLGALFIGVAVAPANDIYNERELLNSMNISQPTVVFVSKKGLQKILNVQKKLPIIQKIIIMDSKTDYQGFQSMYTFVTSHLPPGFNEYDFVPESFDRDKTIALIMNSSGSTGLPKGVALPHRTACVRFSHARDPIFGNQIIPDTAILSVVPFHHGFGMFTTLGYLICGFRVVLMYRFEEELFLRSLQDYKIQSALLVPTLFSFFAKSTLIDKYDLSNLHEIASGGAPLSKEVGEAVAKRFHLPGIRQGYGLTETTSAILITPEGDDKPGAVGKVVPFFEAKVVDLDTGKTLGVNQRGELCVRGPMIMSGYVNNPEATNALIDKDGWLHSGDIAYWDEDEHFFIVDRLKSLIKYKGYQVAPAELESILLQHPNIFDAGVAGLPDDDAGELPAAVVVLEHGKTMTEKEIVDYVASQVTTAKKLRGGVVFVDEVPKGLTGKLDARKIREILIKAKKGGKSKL

Compound | Potency | activity change, negative = inhibition
Cc1ccc(-c2noc([C@@H]3C[C@@H](O)CN3Cc3cccc(C#N)c3)n2)cc1F | inconclusive: 50.1 µM [inhibitor, partial curve] | 
Cc1ccccc1C(=O)N1CCC(CCC(=O)NCCC(C)C)CC1 | inconclusive: 39.8 µM [inhibitor, partial curve] | 
c1ccc(-c2noc(-c3ccccc3OC3CNC3)n2)cc1 | active: 22.4 µM | 
COc1cccc(-c2nc3cnccn3c2NCCC(=O)N2CCc3ccccc32)c1 |  | inactive: -1.23%
O=C(Nc1ccccc1)c1nc2c(o1)CCN(CC1CC1)CC2 | active: 2.24 µM | 
Cc1ccc(C2Cn3cnc(C(=O)N4CCC(C(=O)NCc5ccccc5Cl)CC4)c3CO2)cc1 (stereo unspecified) | active: 35.5 µM | 
CC(=O)Nc1ccc(C(=O)N2CCC3(CC2)N=C(c2ccccc2)NO3)cc1 | active: 35.5 µM | 
Cc1nccn1CC(=O)N1C[C@@H](COCC2CC2)[C@H](c2ccncc2)C1 |  | inactive: -9.87%
CC(C)(C)CC(=O)Nc1cnc(-c2ccc(Cl)cc2)nc1 | active: 0.282 µM | 
C#CCN(C)C(=O)[C@@H](C)C1CC[C@@]2(C)Cc3sc(NCCCC)nc3[C@@H](C)[C@@H]2[C@H]1O (stereo partly specified) | active: 17.8 µM | 
COc1cccc(-c2cc(C3CCN(C(=O)Nc4ccccc4C(F)(F)F)CC3)[nH]n2)c1 |  | inactive: -14.2%
CCOc1ccccc1CNC(=O)c1ccc2c(c1)N(S(C)(=O)=O)CC2 | inconclusive: 50.1 µM [inhibitor, partial curve] | 
CC(C)C[C@@H]1N[C@H](C(=O)NCc2ccncc2)Cc2cn(Cc3ccncc3)c3cccc1c23 |  | inactive: -4.58%
CC1CCc2nn3ccn(CC(=O)Nc4cccc(Cl)c4)c(=O)c3c2C1 (stereo unspecified) | inconclusive: 39.8 µM [inhibitor, partial curve] | 
COCCNc1ncc(-c2cccc(N[S+](C)(=O)[O-])c2)c2c1OCC2 | active: 63.1 µM | 
O=C(c1ccsc1)N1CCc2c(nc3cc(-c4ccccc4Cl)[nH]n3c2=O)C1 | active: 35.5 µM | 
COc1cc(NC(=O)c2cc3c(=O)[nH]c(C)cn3n2)cc(OC)c1OC | inconclusive: 22.4 µM [inhibitor, full curve] | 
COc1cc(C(=O)N2CCCC2c2nonc2C)ccc1OC1CCN(C(C)=O)CC1 (stereo unspecified) | inconclusive: 31.6 µM [inhibitor, partial curve] | 
O=C(Nc1nccs1)c1ccc2c(c1)OCCN(C1CCC1)C2 | active: 22.4 µM | 
O[C@@H]1C[C@@H](c2nc(-c3ccc(OC(F)(F)F)cc3)no2)N(Cc2ncc[nH]2)C1 | inconclusive: 50.1 µM [inhibitor, partial curve] | 
O=C1CC2(CCN(Cc3cccc(O)c3)CC2)CN1Cc1ccc(F)c(F)c1 |  | inactive: -5.66%
CN1CCC(NC(=O)c2n[nH]c3c2CN(C(=O)c2ccccc2)CC3)CC1 |  | inactive: -4.91%
COc1ccc(C(=O)N[C@@H]2CCC[C@@H]2C(=O)NCCCN(C)C)cn1 |  | inactive: -6.45%
COc1ccc(NC(=O)C2CCN(C(=O)c3nnn4c3COC(c3ccc(C)cc3)C4)CC2)cc1 (stereo unspecified) | inconclusive: 39.8 µM [inhibitor, partial curve] | 

Compound | Potency | activity change, negative = inhibition
O=C(NC1CCCCC1)C1CCN(C(=O)c2ncn3c2COC(c2ccc(F)cc2)C3)CC1 (stereo unspecified) | inconclusive: 44.7 µM [inhibitor, partial curve] | 
O=C(Cc1ccc(Cl)cc1)N1CCC(n2cc(-c3nc(-c4ccccc4)no3)nn2)C1 (stereo unspecified) | inconclusive: 35.5 µM [inhibitor, partial curve] | 
Cc1ccc(-c2ncc3c(n2)OCCN(c2ccccc2)C3=O)cc1F | inconclusive: 0.447 µM [inhibitor, full curve] | 
CCc1nc2c(c(-c3ccc(O)cc3)n1)CCN(Cc1ccccn1)CC2 |  | inactive: -0.675%
FC(F)(F)c1ccc(CN2CCNc3cc(Nc4ccccc4)ncc3C2)cc1 | inconclusive: 89.1 µM [inhibitor, partial curve, poor fit] | 
O=C(NCC1CCCN(C(=O)c2ccccn2)C1)c1ccc(-c2ccccc2)cc1 (stereo unspecified) | inconclusive: 56.2 µM [inhibitor, partial curve] | 
O=C(O)c1ccc(-c2ccc(N3CCCCCC3)nc2)cc1 | active: 4.47 µM | 
CS(=O)(=O)c1ccc(CN2C[C@H](O)C[C@H]2c2nc(-c3ccc(F)cc3)no2)cc1 | active: 44.7 µM | 
O=C(NC1CCCNC1)C1CCN(c2nc(-c3ccccc3)nc3c2CCC3)CC1 (stereo unspecified) |  | inactive: -4.35%
COCCc1noc(-c2nc(-c3ccccc3)no2)n1 | active: 20 µM | 
Cc1ccccc1CN1Cc2nc(-c3cncnc3)ccc2OCC1=O |  | inactive: -4% [at 172 µM]
COc1ccc(-c2cc(-c3ccccc3)nc3c(C)noc23)cc1OC |  | inactive: -11% [at 172 µM]
COc1cccc(C(=O)N2CCC3(CC2)CC(Cc2ccccc2)=NO3)c1 |  | inactive: 2.18% [at 172 µM]
O=C(Nc1ccc(F)cc1)N1CCC(O)(c2csc(CN3CCN(c4ccccn4)CC3)n2)CC1 | inconclusive: 89.1 µM [inhibitor, single point] | 
COc1ccc(C(=O)NC(C(=O)N2CCCCC2)C2CCN(C(=O)c3ccc(F)cc3)CC2)cc1 (stereo unspecified) |  | inactive: -7.76%
COc1ccc(CN2CCNc3cc(-c4ccnc(C)c4)ncc3C2)cc1O | inconclusive: 70.8 µM [inhibitor, partial curve] | 
CCCc1ccc2oc(C(=O)N(C)CCC3CCCCO3)c(C)c2c1 (stereo unspecified) | inconclusive: 35.5 µM [inhibitor, partial curve] | 
Cc1ccc(N2C(=S)N[C@H]3[C@@H](O)[C@H](O)C[C@@H](C(=O)NCc4cccs4)[C@H]32)cc1Cl | inconclusive: 50.1 µM [inhibitor, partial curve] | 
COc1cccc(-c2cc3c(=O)n(CCNC(=O)c4ccccc4)ccn3n2)c1 | inconclusive: 10 µM [inhibitor, full curve, poor fit] | 
O=C(c1nccc2ccccc12)N1CCc2c(nc3cc(-c4ccccc4)[nH]n3c2=O)C1 | inconclusive: 50.1 µM [inhibitor, partial curve] | 
Fc1ccc2nc([C@H]3CCN(Cc4ccccc4F)C3)[nH]c2c1 | active: 3.16 µM | 
O=C(NCc1cccc(F)c1)C1CCN(C(=O)c2ncn3c2COC(c2ccc(F)cc2)C3)CC1 (stereo unspecified) | active: 31.6 µM | 
COCCN1Cc2ccc(NCc3ccccc3)nc2C(C)(C(=O)N(C)CCOC)C1 (stereo unspecified) |  | inactive: 10.4% [at 172 µM]
COCCn1cnc2ccc(-c3ccc(F)cc3)nc2c1=O | inconclusive: 89.1 µM [inhibitor, partial curve] | 

Compound | Potency | activity change, negative = inhibition
O=C(Cc1ccsc1)N1CCN(c2cc(-c3cccs3)[nH]n2)CC1 | inconclusive: 50.1 µM [inhibitor, partial curve, poor fit] | 
CCc1ccccc1Nc1nc(-c2cccc(OC)c2OC)no1 | active: 14.1 µM | 
O=C(Nc1ccc(Cl)cc1Cl)c1cc2cccnn2n1 | active: 0.316 µM | 
COc1cccc(-c2noc(Nc3cc(C)cc(C)c3)n2)c1OC | active: 20 µM | 
CNC(=O)c1cc2cc(-c3c(C)noc3C)nc(-c3cccnc3OC)c2o1 |  | inactive: 1.63% [at 172 µM]
COc1cccc(N2CCN(c3nc(C(=O)NCc4cccnc4)cs3)CC2)c1 | inconclusive: 39.8 µM [inhibitor, partial curve] | 
O=C1OCC2=C1C(c1ccc(Cl)cc1)NC(=O)N2CC(=O)N1CCC(Cc2ccccc2)CC1 (stereo unspecified) |  | inactive: -5.59%
O=C1Nc2ccc(-c3cccc(C(F)(F)F)c3)cc2C(=O)N2CCN(C(=O)c3cccc(F)c3)C[C@H]12 | inconclusive: 89.1 µM [inhibitor, single point] | 
CN(CC1CCOCC1)C(=O)Nc1ccc2c(c1)OCCO2 | inconclusive: 50.1 µM [inhibitor, partial curve] | 
CC1(C)[C@H](Cc2cc(-c3ccc(F)cc3)on2)C[C@@H]1NCc1cccnc1 | inconclusive: 89.1 µM [inhibitor, partial curve] | 
COc1ccc2[nH]c(C(=O)NCC(=O)N3CCCCCNC(=O)CC3c3ccccc3)cc2c1 (stereo unspecified) | inconclusive: 39.8 µM [inhibitor, partial curve] | 
COc1cccc(C(=O)N2CC(Oc3cccc(-c4nc(-c5ccccc5)no4)c3)C2)c1 | inconclusive: 10 µM [inhibitor, full curve] | 
COc1cccc(C(=O)NC2CCN(c3cn[nH]c(=O)c3)CC2)c1 |  | inactive: -6.39%
Cc1cc(C)n(CCC(=O)N2c3ccccc3CC2c2noc(C3CCOCC3)n2)n1 (stereo unspecified) | active: 25.1 µM | 
O=S(=O)(Cc1ccccc1)N[C@H]1CO[C@H]2[C@@H]1OC[C@@H]2n1cc(-c2ccccn2)nn1 | inconclusive: 100 µM [inhibitor, partial curve] | 
COc1cccc(-n2cc(CN(C)c3ncncn3)cn2)c1 | active: 12.6 µM | 
NC(=O)c1cc(-c2cc(NCc3cccnc3)nc3[nH]ccc23)ccc1F | inconclusive: 50.1 µM [inhibitor, partial curve, poor fit] | 
Clc1ccc(CN2CCC[C@H]2c2nc(-c3ccc(N4CCOCC4)nc3)no2)cc1 | inconclusive: 56.2 µM [inhibitor, partial curve] | 
O=C(COc1ccccc1)N1CC(Oc2ccc(-c3noc(C4CCOCC4)n3)cc2)C1 |  | inactive: 0%
CN1c2cc(C(=O)Nc3ccc(Oc4ccccc4)cc3)ccc2C(=O)N2CCCCCC21 (stereo unspecified) | inconclusive: 44.7 µM [inhibitor, partial curve] | 
CC(C)c1cc(C(=O)N2CC[C@@](O)(C3CCOCC3)[C@H](C)C2)no1 |  | inactive: 0.732%
Cc1cccc(OCC(=O)N2CCC(c3n[nH]c(=O)n3Cc3ccc(F)cc3)CC2)c1 |  | inactive: -2.83%
COc1ccc(-c2cc(N3CCCN(C(=O)C4CCCC4)CC3)n[nH]2)cc1 | inconclusive: 50.1 µM [inhibitor, partial curve, poor fit] | 
